# Whole data set: some 81,000 sequences, median “one-hybrid fitness for binding parS DNA” near -0.17, cut for the highest 2% near 0.51. This is one part of the list.
# B1: Caulobacter ParB omega fusion; a variant is named by its letters at X, in order, B8GW30 (parent)
# chain: MESVVVGEPGMSEGRRGLGRGLSALLGEVDAAPAQAPGEQLGGSREAPIEILQRNPDQPRRTFREEDLEDLSNSIREKGVLQPILVRPSPDTAGEYQIVAGERAWRAAQRAGLKTVPIMVRELDDLAVLEIGIIENVQRADLNVLEEALSYKVLMEKFERTQENIAQTIGKSXSHVANXMRLLXLPDEVQSYLVSGELTAXHARAIAAAADPVALAKQIIEGGLSVRETEALARKAPNLSAGKSKGGRPPRVKDTDTQALESDLSSVLGLDVSIDHRGSTGTLTITYATLEQLDDLCNRLTRGI
# Variants of: B1
# Assay: one-hybrid fitness for binding parS DNA (scaled: cognate 1, non-cognate 0); higher = stronger binding
# Conditions: with parS DNA site
# Summary of the method: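 Caulobacter ParB libraries with four specificity codons randomised were screened by bacterial one-hybrid selection in the E. coli USO strain, using a HIS3 reporter whose site lies 19 bp from the promoter. Selection ran for 48 hours at 37°C on M9 lacking histidine, with 0.1 mM IPTG and 5 mM 3-AT. Plasmids were Illumina-sequenced before and after selection, three replicate libraries were pooled, and variants with under 10 reads were dropped. Fitness is the log change in each variant's read ratio to wild type, rescaled against the cognate and non-cognate sites.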
row,Variant,one-hybrid fitness for binding parS DNA
1,HQEA,≤ 0.2
2,IQFM,≤ 0.2
3,IPIS,≤ 0.2
4,DQKR,≤ 0.2
5,WVHR,≤ 0.2
6,WTCR,≤ 0.2
7,PAEG,≤ 0.2
8,CSRT,≤ 0.2
9,PLHK,≤ 0.2
10,RYSC,0.929
11,ATLC,≤ 0.2
12,PGFV,≤ 0.2
13,KMPL,≤ 0.2
14,CYAV,≤ 0.2
15,TCKH,≤ 0.2
16,FLPQ,≤ 0.2
17,DEFG,≤ 0.2
18,LPVN,≤ 0.2
19,RTMT,0.935
20,AANR,≤ 0.2
21,ITAR,≤ 0.2
22,FRHV,≤ 0.2
23,DEYC,≤ 0.2
24,KLWS,≤ 0.2

row,Variant,one-hybrid fitness for binding parS DNA
1,LCSS,≤ 0.2
2,RNQQ,≤ 0.2
3,WKRS,≤ 0.2
4,VNIT,≤ 0.2
5,TLSH,≤ 0.2
6,FVEL,≤ 0.2
7,SKSW,≤ 0.2
8,PEMS,≤ 0.2
9,VRDV,≤ 0.2
10,CTRC,≤ 0.2
11,LDLT,≤ 0.2
12,TENY,≤ 0.2
13,SQPE,≤ 0.2
14,HKKI,≤ 0.2
15,AMDE,≤ 0.2
16,QNPF,≤ 0.2
17,QESQ,≤ 0.2
18,SNSI,≤ 0.2
19,KNQV,≤ 0.2
20,KKNM,≤ 0.2
21,SAPT,≤ 0.2
22,EDKI,≤ 0.2
23,SARY,≤ 0.2
24,ECHT,≤ 0.2

row,Variant,one-hybrid fitness for binding parS DNA
1,TLVI,≤ 0.2
2,PIGH,≤ 0.2
3,EAGC,≤ 0.2
4,APHP,≤ 0.2
5,GMVQ,≤ 0.2
6,SFLL,≤ 0.2
7,EYCS,≤ 0.2
8,GDHR,≤ 0.2
9,FDEV,≤ 0.2
10,IQLA,≤ 0.2
11,LLWR,≤ 0.2
12,PRSS,≤ 0.2
13,AQYW,≤ 0.2
14,LIKM,≤ 0.2
15,RQTS,0.984
16,ISDV,≤ 0.2
17,DAHS,≤ 0.2
18,NFCG,≤ 0.2
19,KPSC,≤ 0.2
20,RCIS,1.01
21,PFFL,≤ 0.2
22,PAGM,≤ 0.2
23,CAGM,≤ 0.2
24,PIKY,≤ 0.2

row,Variant,one-hybrid fitness for binding parS DNA
1,MIRS,≤ 0.2
2,RWKI,≤ 0.2
3,HHIC,≤ 0.2
4,YDST,≤ 0.2
5,REVP,≤ 0.2
6,TWAC,≤ 0.2
7,MPFI,≤ 0.2
8,DILM,≤ 0.2
9,KTFK,≤ 0.2
10,QLHE,≤ 0.2
11,YGGF,≤ 0.2
12,ENYR,≤ 0.2
13,WRTC,≤ 0.2
14,CAAS,≤ 0.2
15,AALW,≤ 0.2
16,PSCT,≤ 0.2
17,LTSF,≤ 0.2
18,RYNS,0.872
19,MSDG,≤ 0.2
20,DQRD,≤ 0.2
21,RCSV,≤ 0.2
22,FING,≤ 0.2
23,TCDE,≤ 0.2
24,VKNW,≤ 0.2

row,Variant,one-hybrid fitness for binding parS DNA
1,RHWQ,≤ 0.2
2,NRNA,≤ 0.2
3,WNDT,≤ 0.2
4,PSWR,≤ 0.2
5,AGDI,≤ 0.2
6,NSDG,≤ 0.2
7,MEAS,≤ 0.2
8,AMAT,≤ 0.2
9,SPDP,≤ 0.2
10,MVAP,≤ 0.2
11,VHAR,≤ 0.2
12,KCNQ,≤ 0.2
13,QSNQ,≤ 0.2
14,KLKL,≤ 0.2
15,LGCG,≤ 0.2
16,RKKQ,≤ 0.2
17,WHST,≤ 0.2
18,AFDG,≤ 0.2
19,HVLP,≤ 0.2
20,GAWG,≤ 0.2
21,TGTA,≤ 0.2
22,YRYG,≤ 0.2
23,PELV,≤ 0.2
24,CLFG,≤ 0.2

row,Variant,one-hybrid fitness for binding parS DNA
1,DHDG,≤ 0.2
2,AQIC,≤ 0.2
3,DRVT,≤ 0.2
4,TPLY,≤ 0.2
5,LTNR,≤ 0.2
6,HAKS,≤ 0.2
7,FMRL,≤ 0.2
8,CVRN,≤ 0.2
9,STKY,≤ 0.2
10,QFNG,≤ 0.2
11,SVVP,≤ 0.2
12,LYVS,≤ 0.2
13,APWV,≤ 0.2
14,RAIP,≤ 0.2
15,CDKG,≤ 0.2
16,EGTL,≤ 0.2
17,MYAT,≤ 0.2
18,HADD,≤ 0.2
19,KADS,≤ 0.2
20,ARFR,≤ 0.2
21,LKQV,≤ 0.2
22,LLGV,≤ 0.2
23,QVFT,≤ 0.2
24,LNWG,≤ 0.2

row,Variant,one-hybrid fitness for binding parS DNA
1,AQQT,≤ 0.2
2,NDPH,≤ 0.2
3,NSVK,≤ 0.2
4,LDVC,≤ 0.2
5,LHVC,≤ 0.2
6,RNNH,≤ 0.2
7,RQKT,0.819
8,GCAT,≤ 0.2
9,QHTW,≤ 0.2
10,PREE,≤ 0.2
11,WPHC,≤ 0.2
12,QKLP,≤ 0.2
13,GRQV,≤ 0.2
14,QHSC,≤ 0.2
15,LHMH,≤ 0.2
16,WAWC,≤ 0.2
17,CNSN,≤ 0.2
18,YCLS,≤ 0.2
19,QESN,≤ 0.2
20,QVDM,≤ 0.2
21,GQTQ,≤ 0.2
22,HINI,≤ 0.2
23,LAEC,≤ 0.2
24,NDFT,≤ 0.2

row,Variant,one-hybrid fitness for binding parS DNA
1,PPGL,≤ 0.2
2,CRWS,≤ 0.2
3,LEYW,≤ 0.2
4,QDYF,≤ 0.2
5,NGNT,≤ 0.2
6,STNV,≤ 0.2
7,KKNS,≤ 0.2
8,VDGR,≤ 0.2
9,TAQV,≤ 0.2
10,HSID,≤ 0.2
11,CRKM,≤ 0.2
12,THEM,≤ 0.2
13,KSHR,≤ 0.2
14,LTYC,≤ 0.2
15,QTVQ,≤ 0.2
16,SRNV,≤ 0.2
17,YVPE,≤ 0.2
18,EMTK,≤ 0.2
19,CCTR,≤ 0.2
20,QCKC,≤ 0.2
21,RYKW,0.244
22,QKAY,≤ 0.2
23,TPYL,≤ 0.2
24,NTEP,≤ 0.2

row,Variant,one-hybrid fitness for binding parS DNA
1,GQTV,≤ 0.2
2,NRHV,≤ 0.2
3,METL,≤ 0.2
4,IVLS,≤ 0.2
5,QPCS,≤ 0.2
6,QRFR,≤ 0.2
7,WIAN,≤ 0.2
8,HQYS,≤ 0.2
9,RCVC,0.965
10,MQAN,≤ 0.2
11,KYWR,≤ 0.2
12,LTYW,≤ 0.2
13,RCPR,≤ 0.2
14,LEEK,≤ 0.2
15,NLIR,≤ 0.2
16,IAAE,≤ 0.2
17,PLCI,≤ 0.2
18,EMDS,≤ 0.2
19,QKMY,≤ 0.2
20,VHYF,≤ 0.2
21,AQAC,≤ 0.2
22,AADN,≤ 0.2
23,GYHS,≤ 0.2
24,HRET,≤ 0.2

row,Variant,one-hybrid fitness for binding parS DNA
1,QTQY,≤ 0.2
2,MTFR,≤ 0.2
3,ARKK,≤ 0.2
4,LDSN,≤ 0.2
5,WSQG,≤ 0.2
6,NMPS,≤ 0.2
7,IQTC,≤ 0.2
8,QKDM,≤ 0.2
9,DHMC,≤ 0.2
10,MRPF,≤ 0.2
11,TKIC,≤ 0.2
12,HAPF,≤ 0.2
13,MWRH,≤ 0.2
14,TQLG,≤ 0.2
15,WQGS,≤ 0.2
16,RPVS,≤ 0.2
17,ITMR,≤ 0.2
18,QYVY,≤ 0.2
19,TKAM,≤ 0.2
20,RIMK,≤ 0.2
21,PRPI,≤ 0.2
22,TCYS,≤ 0.2
23,DVRT,≤ 0.2
24,MSFP,≤ 0.2

row,Variant,one-hybrid fitness for binding parS DNA
1,AVDW,≤ 0.2
2,CVNP,≤ 0.2
3,QDSG,≤ 0.2
4,DVST,≤ 0.2
5,PPER,≤ 0.2
6,LVMS,≤ 0.2
7,PAWA,≤ 0.2
8,KLAF,≤ 0.2
9,IYMF,≤ 0.2
10,QDTF,≤ 0.2
11,GTHL,≤ 0.2
12,LCAH,≤ 0.2
13,QPWH,≤ 0.2
14,PRQS,≤ 0.2
15,TPSP,≤ 0.2
16,ANPR,≤ 0.2
17,PDLQ,≤ 0.2
18,LSRM,≤ 0.2
19,QWQV,≤ 0.2
20,IKRQ,≤ 0.2
21,FGSA,≤ 0.2
22,TVTQ,≤ 0.2
23,YSYC,≤ 0.2
24,QMEC,≤ 0.2

row,Variant,one-hybrid fitness for binding parS DNA
1,FTLM,≤ 0.2
2,RREN,0.3
3,SNQY,≤ 0.2
4,AFRA,≤ 0.2
5,RAFD,≤ 0.2
6,CALR,≤ 0.2
7,QGRK,≤ 0.2
8,PNSN,≤ 0.2
9,AHNM,≤ 0.2
10,SMLF,≤ 0.2
11,QTSE,≤ 0.2
12,TMVC,≤ 0.2
13,KQQR,≤ 0.2
14,VLIV,≤ 0.2
15,SVFG,≤ 0.2
16,QCID,≤ 0.2
17,VLER,≤ 0.2
18,TSVY,≤ 0.2
19,LYMF,≤ 0.2
20,ANRR,≤ 0.2
21,SKPE,≤ 0.2
22,SECF,≤ 0.2
23,VRFL,≤ 0.2
24,YMSR,≤ 0.2

row,Variant,one-hybrid fitness for binding parS DNA
1,RQQG,0.99
2,HELT,≤ 0.2
3,TFKL,≤ 0.2
4,TSCT,≤ 0.2
5,EHYS,≤ 0.2
6,PSLG,≤ 0.2
7,SRIW,≤ 0.2
8,RLTD,≤ 0.2
9,SGFM,≤ 0.2
10,YSRG,≤ 0.2
11,HMVT,≤ 0.2
12,RNVV,≤ 0.2
13,AETF,≤ 0.2
14,ITNV,≤ 0.2
15,HPRW,≤ 0.2
16,TGDR,≤ 0.2
17,LRSY,≤ 0.2
18,THIP,≤ 0.2

# — a collection of fitness landscapes (doi:10.1016/j.celrep.2020.107928)
